The experiment addresses T1, non-activatable Factor X (FXn) (Homo sapiens (Human), UniProt P00742, single biotin on the C-terminal BioTag).
T1 construct: also called BIIB-FX-015
In words: BLI; class meaning: paragraph 285. On the technique in general: In BLI a coated tip is dipped into the sample, and binding shifts an interference pattern.

From patent US20230192896A1 (BIOVERATIV THERAPEUTICS, published 2023) come the findings set out here.

T1 sequence (P00742 other isoform, or with tags, fused parts or gaps limits assumed): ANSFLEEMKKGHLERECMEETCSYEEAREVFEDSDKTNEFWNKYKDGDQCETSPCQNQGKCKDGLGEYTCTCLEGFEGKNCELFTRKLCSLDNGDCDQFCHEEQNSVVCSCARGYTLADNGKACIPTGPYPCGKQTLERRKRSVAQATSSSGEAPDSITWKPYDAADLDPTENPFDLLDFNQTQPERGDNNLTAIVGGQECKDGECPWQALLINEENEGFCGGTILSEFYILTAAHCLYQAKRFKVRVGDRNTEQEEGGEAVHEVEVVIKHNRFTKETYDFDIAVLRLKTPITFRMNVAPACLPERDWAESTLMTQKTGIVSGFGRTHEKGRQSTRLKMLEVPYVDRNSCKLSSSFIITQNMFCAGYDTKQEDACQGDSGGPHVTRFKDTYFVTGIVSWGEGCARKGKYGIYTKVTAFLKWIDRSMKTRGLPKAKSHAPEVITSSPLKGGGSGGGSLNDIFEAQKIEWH

B1: BIIB-12-1334 (antibody, V domains shown)
VH: QVQLVESGGGVVQPGRSLRLSCAASGFTFSSYGMHWVRQAPGKGLEWVAVISYDGSNKYYADSVKGRFTISRDNSKNTLYLQMNSLRAEDTAVYYCARVPRKQTGHVDYWGQGTLVTVSS
VL: [here about 100 residues without letters]IGTPWTFGGGTKVEIK
notes: IgG
Consider B1, for which the binding result is listed as “binds”.
